From PubChem BioAssay AID1645887 (National Center for Advancing Translational Sciences (NCATS), 2021)
Where “and” joins values, the source holds several entries; their conditions need not be identical. Equal entries are not always repeated. About 40 (0.2%) of roughly 16,000 compounds were called active. About 1% were inconclusive and are not listed. Calls follow the shape of the dose curve; as a rule, active = well fitted activation curve with a large enough effect; inconclusive = small, poorly fitted or top-dose-only effect, or another doubt; inactive = no such curve, though single readings can be large or run the other way. The list shows a part of the results.

Molecular target: Rap guanine nucleotide exchange factor 4 (Homo sapiens) (UniProt Q8WZA2)
Sequence of UniProt Q8WZA2 (Q8WZA2 whole entry, looked up): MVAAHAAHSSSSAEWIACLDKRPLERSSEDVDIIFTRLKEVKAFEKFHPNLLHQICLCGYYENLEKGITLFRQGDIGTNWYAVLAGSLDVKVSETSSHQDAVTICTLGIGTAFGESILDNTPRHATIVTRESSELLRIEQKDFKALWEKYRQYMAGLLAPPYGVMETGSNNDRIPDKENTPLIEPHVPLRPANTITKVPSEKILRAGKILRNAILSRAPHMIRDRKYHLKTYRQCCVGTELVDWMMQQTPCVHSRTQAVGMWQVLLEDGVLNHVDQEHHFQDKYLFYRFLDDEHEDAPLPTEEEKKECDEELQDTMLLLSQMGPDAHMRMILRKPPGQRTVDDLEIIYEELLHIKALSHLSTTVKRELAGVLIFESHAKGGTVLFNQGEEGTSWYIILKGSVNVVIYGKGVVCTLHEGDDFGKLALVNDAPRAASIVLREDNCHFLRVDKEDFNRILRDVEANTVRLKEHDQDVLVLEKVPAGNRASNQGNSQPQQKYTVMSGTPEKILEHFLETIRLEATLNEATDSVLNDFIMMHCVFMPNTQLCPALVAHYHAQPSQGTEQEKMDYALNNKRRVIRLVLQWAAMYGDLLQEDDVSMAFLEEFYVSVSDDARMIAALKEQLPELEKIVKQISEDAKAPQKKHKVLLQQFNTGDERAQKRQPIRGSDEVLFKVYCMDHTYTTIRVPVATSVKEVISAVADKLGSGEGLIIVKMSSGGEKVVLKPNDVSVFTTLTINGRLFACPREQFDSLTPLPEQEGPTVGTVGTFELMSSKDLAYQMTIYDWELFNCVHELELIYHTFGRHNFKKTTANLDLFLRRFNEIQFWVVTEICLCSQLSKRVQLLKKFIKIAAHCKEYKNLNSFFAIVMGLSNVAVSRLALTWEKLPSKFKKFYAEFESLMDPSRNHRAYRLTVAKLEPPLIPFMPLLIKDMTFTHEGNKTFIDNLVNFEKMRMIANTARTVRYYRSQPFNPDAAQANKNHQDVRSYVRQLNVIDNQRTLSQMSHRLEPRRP
Assay: Validation qHTS for agonist of cAMP-regulated guanine nucleotide exchange factor 4 (EPAC2);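 as to activation: exchange makes BODIPY-GDP fluorescence drop when released from Rap1B; series mostly up to about 150 µM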
Settings: EPAC2 Rap1B BODIPY-GDP exchange, fluorescence; activation: active compounds read high
How it was run: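 Fluorescent exchange assay: 100 nM EPAC2 with 250 nM RAP1B-BODIPY-GDP and 50 uM GDP; compound added, 5 min at room temperature, then read (ex 480/em 540 nm) every 5 min for 30 min. Normalized to 6.5 mM cAMP agonist control.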
% is scaled to controls: 0 for no effect and ±100 for the full control effect; potency is read from the fitted curve at half-maximal effect.

| SMILES | activation | Potency |
| --- | --- | --- |
| Cc1cccc(/C=C/c2cccs2)n1 | inactive: -18.4% | – |
| COc1cccc(Cn2c(=O)c(-c3cn(C)c4ccccc34)nc3cnc(N4CCOCC4)nc32)c1 | inactive: -8.66% | – |
| C[C@@H]1C(=O)NC2=Nc3cccc(Cl)c3CN21 | inactive: -22.1% and inactive: -38% | – |
| COCCN(C)C(=O)c1cnn(-c2ncc3c(n2)-c2ccccc2CCC3)c1C1CC1 | inactive: -0.453% | – |
| O=c1cc(-c2ccccc2)oc2cccc(O)c12 | inactive: 2.29% and inactive: -1.18% | – |
| O=C(NC1CCN(CCc2c[nH]c3ccccc23)CC1)c1ccccc1 | inactive: -14.9% | – |
| C=C[C@H](CC(C)C)N(Cc1ccccc1)S(=O)(=O)N(Cc1ccccc1)[C@H](C=C)CC(C)C | inactive: -5.66% | – |
| Cc1ccccc1-c1ccc2ncnc(N3CCN(C)CC3)c2c1 | inactive: -17.3% | – |
| COC(=O)c1c(OCc2ccccc2)cc(=O)n2c1CCN(Cc1cccc(C)n1)CC2 | inactive: -14.6% | – |
| NCCNC(=O)c1ccc(Cl)cc1 | inactive: 4.63% | – |
| CC1=C(C2=C(C)C(C(C)C)C3=C(C(=O)C(O)C3O)C2O)C(O)C2=C(C(O)C(O)C2=O)C1C(C)C (stereo unspecified) | inactive: 3.08% | – |
| O=C1CCN(Cc2ccccc2)CCN1CCO | inactive: -34.4% | – |
| CC(C1OC(C)(C)C(O)C1O)C1CC[C@@]2(C)C3=CCC4C(C)(C)C(=O)CC[C@]4(C)C3CC[C@@]12C (stereo partly specified) | inactive: -23.1% | – |
| COc1ccc(CN2CCC3(CCC(CNC(=O)c4ccnn4C)O3)CC2)c(C)c1C (stereo unspecified) | inactive: -9.06% | – |
| OCC(O)C(O)[C@H](O[C@H]1OC(CO)C(O)C(O)C1O)[C@H](O)CO (stereo partly specified) | inactive: -16.5% | – |
| CC[N+](CC)(CC)c1ccc(/C=C/c2ccnc3ccccc23)cc1 | inactive: -23.2% | – |
| COCCn1c(=O)cnc2cnc(Oc3cccc(Cl)c3)nc21 | inactive: -1.54% | – |
| Cc1c(C(=O)N2CC[C@@H]3CCCC[C@H]3C2)sc2ncnc(NCCc3ccccn3)c12 | inactive: -9.11% | – |
| CCCCN1C[C@H](C)[C@@H](CC(=O)NCc2ccccc2)C1=O | inactive: 7.82% | – |
| CC(=O)Nc1ccc(S(=O)(=O)Nc2cc(C)on2)cc1 | inactive: -12% | – |
| CC(=O)NCCNc1cc(-c2ccccc2C)ncn1 | inactive: 2.33% | – |
| CC(C)C[C@@H](CC#N)N1CCN(CCc2ccccc2)CCC1=O | inactive: -12.7% | – |

| SMILES | activation | Potency |
| --- | --- | --- |
| Cc1ccc(CNc2ncnc3sc(C(=O)N4CCC[C@H]4C(N)=O)c(C)c23)o1 | inactive: -12.6% | – |
| O=C(O)CP(=O)(O)O | inactive: -6.52% and inactive: -24.6% | – |
| CN(C)c1ncc2nc(-c3cc(F)cc(F)c3)c(=O)n(C[C@H]3CCCO3)c2n1 | inactive: -17.4% | – |
| CC1(C)CC(=O)C([C@H]2C3=C(CC(C)(C)CC3=O)Oc3ccccc32)C(=O)C1 | inactive: -7.14% | – |
| COCCNc1nc(-c2ccccc2C)nc2ccccc12 | inactive: -12.8% | – |
| c1ncc(CC2CCNCC2)[nH]1 | inactive: -13.6% and inactive: 11.4% | – |
| Cc1cnc(CNc2ncnc3ccc(-c4ccc5c(c4)OCO5)cc23)cn1 | inactive: 2.9% | – |
| Cn1ccc2cc3c(cc21)CCN3C(=O)Nc1cccnc1 | inactive: -2.04% and inactive: 0.536% and inactive: 11.2% | – |
| Cc1oc(-c2ccccc2NC(=O)c2cccnc2)nc1CNC(=O)c1ccc(N(C)C)cc1 | inactive: -5.8% | – |
| CC(C)CCCC(C)C1CCC2C3=CC[C@@H]4CC(O)CC[C@@]4(C)C3CC[C@]21C (stereo partly specified) | inactive: -32.8% | – |
| Cc1occc1C(=O)Nc1cccc(-c2nc(CNC(=O)c3cccc(C#CC(C)(C)O)c3)c(C)o2)c1 | inactive: -15.2% | – |
| C=CCc1cccc(C=NNC(=O)CN2CCN(Cc3ccccc3)CC2)c1O | inactive: -28.2% | – |
| FC(F)OC(Cl)C(F)(F)F (stereo unspecified) | – | active: 31.6 µM |
| COCC(=O)N1CCC2(CC1)CCN(C(=O)NC(C)C)CC2 | inactive: -2.68% | – |
| Cc1ncc2c(c1CNC(=O)c1cncs1)CCN(C(=O)c1ccc(C(F)(F)F)cc1)C2 | inactive: 0.21% | – |
| N#CC(C#N)=C(N)/C(C#N)=C/c1cc(O)c(O)c(O)c1 | inactive: 11.8% | – |
| CC(C)CN1CC[C@@]2(CCCN(S(=O)(=O)c3ccccc3)C2)C1 | inactive: -25.7% | – |
| Cn1cccc1C(=O)N1CCC2(CCN(Cc3ccccc3)CC2)CC1 | inactive: -5.84% | – |
| O=C(Nc1nccs1)[C@@H]1CC=C[C@@H]2CCN(C3CCCCC3)C(=O)[C@@H]21 | inactive: -12.8% | – |
| COCc1c(C(=O)NC2CCCCC2)cnn1-c1nccc(-c2cc(C)sc2C)n1 | inactive: -10.2% | – |
| Clc1cccc2c1CN(C1=NCCN1)C2 | inactive: -19.8% | – |
| COc1ccc(CCC(=O)O)cc1 | inactive: -9.57% | – |

| SMILES | activation | Potency |
| --- | --- | --- |
| COc1ccc(/C=C/C(=O)c2ccc(O)cc2O)cc1OC | inactive: 1% | – |
| CCN(CC)CCCCCCCCOC(=O)c1cc(OC)c(OC)c(OC)c1 | inactive: -0.934% and inactive: -14.3% and inactive: -38.6% | – |
| Cc1ccc(-c2ccc(C(=O)N3CCc4nnc(CNC(=O)c5ccccc5)n4CC3)cc2)cc1 | inactive: -7.59% | – |
| Cc1c(C(=O)N2CCCCC2)sc2ncnc(NCCN(C)C)c12 | inactive: -0.49% | – |
| CS(=O)(=O)N1CCC2(CCN(C(c3ccccc3)c3ccccc3)CC2)CC1 | inactive: -23.6% | – |
| CCCSc1ccc2nc(NC(=O)OC)[nH]c2c1 | inactive: -11.7% and inactive: -20.3% | – |
| O=C(c1cc(C(F)(F)F)cc(C(F)(F)F)c1)N1CCC2(CCCN(c3ccncc3)C2)CC1 | inactive: -7.92% | – |
| O=[N+]([O-])c1cccc2[nH]cnc12 | inactive: 2.27% | – |
| COc1ccc(-c2oc3cc(OC)c(OC(C)=O)c(OC)c3c(=O)c2OC)cc1OC(C)=O | inactive: -9.51% | – |
| CC(=O)O[C@H]1CC[C@@]2(C)C(=CC[C@H]3[C@@H]4CC[C@H](C(C)=O)[C@@]4(C)CC[C@@H]32)C1 | inactive: -0.231% | – |
| Nc1ncnc(Nc2ccccc2)n1 | inactive: -9.08% | – |
| Cn1c(=O)[nH]c2nc[nH]c2c1=O | inactive: -16.9% | – |
| CN1CCN(c2ncc3nc(-c4ccccc4)c(=O)n(-c4ccccc4)c3n2)CC1 | inactive: -3.62% | – |
| CCC1(C2CCN(Cc3ccccn3)CC2)NC(=O)N(CC2COc3ccccc3O2)C1=O (stereo unspecified) | inactive: -2.34% | – |
| Cc1cnc2ccccc2c1/C=C/c1ccc(N(C)C)cc1 | inactive: 20.8% | – |
| COc1cccc(-c2ccc3ncnc(NCc4ccccc4)c3c2)c1 | inactive: -22.3% | – |
| O=C(NCc1nnc2n1CCN(Cc1ccc(C(F)(F)F)cc1)CC2)c1cccc(F)c1 | inactive: -15.3% | – |
| CCNc1ncc2nc(-c3cccs3)c(=O)n(CCc3ccccc3)c2n1 | inactive: -14% | – |
| C[N+]1(CC(=O)c2ccc(Oc3ccccc3)cc2)CCOCC1 | inactive: -33.3% | – |
| CC(=O)NCCNc1nc(-c2ccc(C(=O)N(C)C)cc2)nc2ccccc12 | inactive: -10.5% | – |
| COc1ccc2c(=O)cc(-c3ccccc3)oc2c1O | inactive: -5.65% | – |
| CCC[C@@]1(CCc2ccccc2)CC(O)=C([C@H](CC)c2cccc(NS(=O)(=O)c3ccc(C(F)(F)F)cn3)c2)C(=O)O1 | inactive: 19.4% | – |

| SMILES | activation | Potency |
| --- | --- | --- |
| Nc1ncnc2c1[nH]c(=O)n2C1OC(CO)C(O)C1O (stereo unspecified) | inactive: -14.5% | – |
| CCCCC(=O)NCCc1c(Cc2ccccc2)[nH]c2ccccc12 | inactive: -3.41% and inactive: 8.72% | – |
| C[C@@]12CCC3c4ccc(O)cc4CCC3C1CCC2O (stereo partly specified) | inactive: -12.6% | – |
| NC[C@@H]1O[C@@H](O[C@H]2[C@@H](O)[C@H](O[C@@H]3[C@@H](O)[C@@H](N)C[C@H](N)[C@H]3O[C@H]3O[C@H](CN)[C@@H](O)[C@@H](O)[C@H]3N)O[C@H]2CO)[C@H](N)[C@@H](O)[C@@H]1O | inactive: -5.42% | – |
| CC(=O)Nc1ccccc1-c1nc(CNC(=O)c2ccc(C)cc2)c(C)o1 | inactive: 4.05% | – |
| CC(NC(=O)C1CC1)c1nnc2n1CCN(Cc1cccc(F)c1F)CC2 (stereo unspecified) | inactive: 5.64% | – |
| Cc1ncc2c(c1CNC(=O)c1ccc3c(c1)OCO3)CCN(C(=O)/C=C/c1ccccc1Cl)C2 | inactive: 5.09% | – |
| COc1ccc(-c2cc(=O)c3ccccc3o2)cc1OC | inactive: -8.52% | – |
| CC(=O)OCC(=O)[C@H]1CC[C@H]2[C@@H]3CCC4=CC(=O)CC[C@]4(C)[C@H]3CC[C@]12C | inactive: -0.862% | – |
| c1ccc(-c2onc(-c3ccco3)c2-c2ccc3[nH]ccc3c2)cc1 | inactive: 4.72% | – |
| COc1ccc(NC(=O)C2CC23CCN(Cc2cccc4ncccc24)CC3)cc1Cl (stereo unspecified) | inactive: -19.9% | – |
| COc1cc(O)ccc1C(C)=O | inactive: -5.92% | – |
| O=c1c(-c2cc(F)cc(F)c2)nc2cnc(N3CCOCC3)nc2n1Cc1ccc(F)cc1 | inactive: -8.25% | – |
| C#CCn1c(=O)c2c(ncn2C)n(C)c1=O | inactive: -2.92% and inactive: -26% | – |
| CCOC(C)OCC | inactive: -6.93% | – |
| COC(=O)c1cccc(-c2cc(Cl)c3c(c2)CC(CNC(=O)c2cccnc2)O3)c1 (stereo unspecified) | inactive: -7.16% | – |
| COc1cccc(-c2cc(NCc3cccs3)ncn2)c1 | inactive: -11.9% | – |
| COc1ncc2nc(-c3ccc(Cl)cc3)c(=O)n(C[C@H]3CCCO3)c2n1 | inactive: -15.4% | – |
| CC(CN(C)C)CN1c2ccccc2Sc2ccccc21 (stereo unspecified) | inactive: -7.5% | – |
| CC1(C)[C@@H](OC(=O)CCC(=O)O)CC[C@]2(C)[C@H]3C(=O)C=C4[C@@H]5C[C@@](C)(C(=O)O)CC[C@]5(C)CC[C@@]4(C)[C@]3(C)CC[C@@H]12 | inactive: -8.16% | – |
